In all, about 390,000 compounds went through this assay and about 17,000 (4.4%) were called active. Inconclusive results, whose numbers are uncertain, are shown with a selection of clear calls. Calls come from the whole dose curve; as a rule, active = well fitted inhibition curve with a large enough effect; inconclusive = small, poorly fitted or top-dose-only effect; inactive = no such curve, though single readings can be large or run the other way. Where the call is inconclusive, the potency comes from a doubtful curve fit.
What follows are compounds tested against Lysine-specific demethylase 4A (Homo sapiens) (UniProt O75164) (assay: qHTS Assay for Inhibitors of JMJD2A-Tudor Domain). Conditions: AlphaScreen JMJD2A-Tudor / H3K4me3 peptide binding; activity change, negative = inhibition: at 114 µM (top of the series).
% is set by controls: 0 for no effect and ±100 for the full control effect; potency is the fitted concentration of half-maximal effect; tags give direction and shape of the fitted curve.
Note: nearly all actives have a fitted effect of over 50% in size.

Chain of UniProt O75164 (O75164 whole entry, looked up, the tested form may be a part): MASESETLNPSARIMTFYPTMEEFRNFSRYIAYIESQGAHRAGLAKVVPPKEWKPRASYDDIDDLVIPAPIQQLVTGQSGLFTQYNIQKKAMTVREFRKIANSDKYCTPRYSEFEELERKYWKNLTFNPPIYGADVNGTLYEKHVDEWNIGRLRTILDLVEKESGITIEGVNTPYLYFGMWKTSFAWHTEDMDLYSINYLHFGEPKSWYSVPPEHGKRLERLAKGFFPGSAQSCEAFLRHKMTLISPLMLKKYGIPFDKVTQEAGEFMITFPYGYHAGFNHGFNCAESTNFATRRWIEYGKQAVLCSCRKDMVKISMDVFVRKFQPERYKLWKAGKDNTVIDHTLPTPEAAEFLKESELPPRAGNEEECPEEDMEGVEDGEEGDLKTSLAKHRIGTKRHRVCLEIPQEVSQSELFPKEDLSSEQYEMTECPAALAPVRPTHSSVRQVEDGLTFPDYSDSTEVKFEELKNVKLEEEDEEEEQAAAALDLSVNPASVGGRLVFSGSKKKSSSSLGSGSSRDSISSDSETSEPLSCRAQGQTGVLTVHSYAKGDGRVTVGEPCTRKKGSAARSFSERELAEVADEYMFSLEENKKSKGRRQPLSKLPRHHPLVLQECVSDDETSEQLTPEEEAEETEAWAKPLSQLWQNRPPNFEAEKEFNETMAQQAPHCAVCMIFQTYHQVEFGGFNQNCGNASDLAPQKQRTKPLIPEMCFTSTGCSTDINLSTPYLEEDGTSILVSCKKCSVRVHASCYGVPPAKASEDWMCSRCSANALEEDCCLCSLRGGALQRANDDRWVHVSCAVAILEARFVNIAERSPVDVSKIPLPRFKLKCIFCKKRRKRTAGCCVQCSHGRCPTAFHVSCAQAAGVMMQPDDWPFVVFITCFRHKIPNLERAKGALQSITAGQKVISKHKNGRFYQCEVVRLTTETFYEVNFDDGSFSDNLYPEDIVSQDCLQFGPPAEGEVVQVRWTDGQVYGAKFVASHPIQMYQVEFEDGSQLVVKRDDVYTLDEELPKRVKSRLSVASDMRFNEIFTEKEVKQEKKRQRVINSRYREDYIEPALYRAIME

| Compound | activity change, negative = inhibition | Potency |
| --- | --- | --- |
| CC(=O)OC1CCC2(C)C(CCC3C4CC(N5CC5)C(C(C)=O)C4(C)CC(=O)C32)C1 (configuration not stated) | inactive: -24.3% | – |
| O=c1[nH]c2ccccc2n1CCCN1CCC(n2c(=O)[nH]c3cc(Cl)ccc32)CC1 | inactive: -18% | – |
| CN1CCN(c2cc(N3CCCC3)c([N+](=O)[O-])cc2F)CC1 | – | inconclusive: 56.2 µM [inhibitor, partial curve] |
| S=c1nc(-c2ccccc2)n(-c2ccccc2)[nH]1 | – | active: 3.55 µM |
| CN1C2CCC1/C(=C/c1ccccn1)C(=O)/C2=C\c1ccccn1 | – | active: 79.4 µM |
| Cc1ccc(NC(=O)N(Cc2ccc3c(c2)OCO3)C2CCN(Cc3ccccc3)CC2)cc1Cl | – | inconclusive: 35.5 µM [inhibitor, partial curve] |
| Cc1ccccc1N1CCN(Cc2ccc3c(c2)OCO3)CC1 | – | active: 5.62 µM |
| C[N+]1(C)CCC(OC(=O)C(c2ccccc2)c2ccccc2)CC1 | – | inconclusive: 25.1 µM [inhibitor, full curve] |
| COC(=O)C(O)(c1ccc(NC(=S)NC(=O)c2ccccc2)cc1)C(F)(F)F (configuration not stated) | – | inconclusive: 56.2 µM [inhibitor, partial curve] |
| O=C(c1ccc(CNS(=O)(=O)c2ccccc2)cc1)N1CCC2(CC1)OCCO2 | – | inconclusive: 50.1 µM [inhibitor, partial curve] |
| CCCCc1ccc2[nH]cc(CCN)c2c1 | – | inconclusive: 14.1 µM [inhibitor, full curve] |
| C=Cn1ccnc1P(=S)(c1nccn1C=C)c1nccn1C=C | – | inconclusive: 39.8 µM [inhibitor, single point] |
| Cc1ccc2c(c1)C1CN(C)CCC1N2C(=O)c1cn(-c2ccccc2)nc1-c1ccccc1 (configuration not stated) | – | inconclusive: 56.2 µM [inhibitor, partial curve] |
| COc1cccc(CNCCc2c[nH]c3ccccc23)c1 | – | active: 3.55 µM |
| O=C1NC(=O)N(CCC2=CCCCC2)C(=O)/C1=C/c1cccs1 | – | inconclusive: 79.4 µM [inhibitor, single point] |
| COc1cc2[nH]c(=O)n(CCCCCC(=O)N3CCN(c4cccc(C(F)(F)F)c4)CC3)c(=O)c2cc1OC | – | inconclusive: 89.1 µM [inhibitor, partial curve] |
| CCOC(=O)c1c(C)n(Cc2ccco2)c2ccc(OC)cc12 | inactive: -12% | – |
| C[N+]1(CC(COCc2ccccc2)OC(=O)Cc2ccccc2)CCOCC1 (configuration not stated) | – | inconclusive: 28.2 µM [inhibitor, single point] |
| CCn1c(O)c(/C=N/NC(=O)c2ccncc2)c(=O)[nH]c1=S | – | active: 70.8 µM |
| COc1ccc(Br)cc1CNCCc1ccc2c(c1)OCO2 | – | active: 25.1 µM |
| COc1ccc(NC(=O)CCn2cc(C)c3ccccc32)cc1 | – | inconclusive: 89.1 µM [inhibitor, partial curve] |
| Cc1ccc(-c2nnc(Nc3ccc(O)cc3)c3ccccc23)cc1S(=O)(=O)N1CCOCC1 | – | inconclusive: 56.2 µM [inhibitor, partial curve, poor fit] |
| C=CCn1c(O)c(C(CC)=Nc2ccc(N(CC)CC)cc2)c(=O)[nH]c1=O | – | inconclusive: 63.1 µM [inhibitor, partial curve] |
| Clc1ccc(CCC(Cn2ccnc2)Sc2c(Cl)cccc2Cl)cc1 (configuration not stated) | – | active: 25.1 µM |

| Compound | activity change, negative = inhibition | Potency |
| --- | --- | --- |
| O=C1NC(=O)N(c2ccccc2)C(=O)/C1=C/c1ccc([N+](=O)[O-])s1 | – | active: 56.2 µM |
| COC(=O)C1=C(c2ccc(C(C)=O)cc2)C[C@@H]2CC[C@H]1N2C(=O)N1CCC(O)(c2ccc(Cl)cc2)CC1 | inactive: -19.3% | – |
| COc1cccc(CN2CCN(Cc3cccc(F)c3)CC2)c1 | – | active: 7.94 µM |
| CN1CCN(Cc2cc(C(C)(C)C)c(O)c(C(C)(C)C)c2)CC1 | – | active: 2.24 µM |
| Fc1ccccc1CNC1CN2CCC1CC2 (configuration not stated) | – | active: 39.8 µM |
| O=C1NC(=O)C2(Cc3ccccc3N3CCCC32)C(=O)N1c1ccc(Cl)cc1 (configuration not stated) | – | inconclusive: 70.8 µM [inhibitor, partial curve, poor fit] |
| Cc1cccc(-n2c(O)c(C)c(=O)[nH]c2=S)c1 | inactive: -16.5% | – |
| O=C(O)CCn1cc(C=C2C(=O)NC(=S)NC2=O)c(-c2cccc(Cl)c2)n1 | – | active: 50.1 µM |
| O=c1[nH]c(=O)n(Cc2ccc(F)cc2)c(O)c1C=NCCN1CCCCC1 | inactive: -28.9% | – |
| Cc1ccc(OCC(=O)Nc2ccc(Cl)cc2C(=O)c2ccccc2)c(Br)c1 | inactive: -1.96% | – |
| COC(=O)C1=C(c2ccc(OCc3ccccc3)cc2)C[C@@H]2CC[C@H]1N2C(=O)NC1CCN(Cc2ccccc2)CC1 | – | inconclusive: 44.7 µM [inhibitor, partial curve] |
| Cn1cc(/C=C(\C(=O)O)C(C(=O)O)=C2CCCCC2)c2ccccc21 | – | inconclusive: 10 µM [inhibitor, full curve] |
| Cc1cc(N2C(=O)C3CCCN3C2c2ccccc2)no1 (configuration not stated) | – | active: 28.2 µM |
| COC(=O)C1=C(c2ccc(F)cc2OCc2ccccc2)C[C@@H]2CC[C@H]1N2C(=O)NCc1cccc(F)c1 | – | inconclusive: 15.8 µM [inhibitor, full curve, poor fit] |
| CCCCn1c(O)c(C(CC)=Nc2ccc(OC)cc2OC)c(=O)[nH]c1=O | – | inconclusive: 56.2 µM [inhibitor, partial curve] |
| CCN(CC)c1ccc(CN(C)CCc2ccc(OC)c(OC)c2)cc1 | – | active: 10 µM |
| O=C(Cc1ccccc1)N1CCN(C2CCCCCC2)CC1 | – | active: 79.4 µM |
| CCCCCCCSc1cc(OC)c(CCN(C)C)cc1OC | – | active: 35.5 µM |
| COC(=O)c1ccccc1-n1c(C)nc2ccccc2c1=O | inactive: 12.3% | – |
| Cc1cc(N2CCCCC2)ccc1C=C1C(=O)N(C)C(=S)N(C)C1=O | – | inconclusive: 70.8 µM [inhibitor, single point] |
| Oc1cccc2nc3ccccc3nc12 | – | inconclusive: 56.2 µM [inhibitor, partial curve] |
| COc1ccccc1CN1CCN(C(=O)COc2ccccc2)CC1 | – | active: 3.16 µM |
| CCc1ccccc1NC(=O)c1sc2nc3c(cc2c1N)CN(Cc1ccccc1)CC3 | – | inconclusive: 63.1 µM [inhibitor, partial curve, poor fit] |

— PubChem BioAssay AID504339 (National Center for Advancing Translational Sciences (NCATS), 2011)
